The campaign covered roughly 310,000 compounds. About 14,000 (4.5%) showed an effect of 50% or more. The effect is printed as a negative number. This is one part of the list.
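Also: peak tail current of the secondary pulse compared with the same well before compound.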

The target in the assay is human ether-à-go-go-related gene (hERG) potassium channel (human, UniProt Q12809). Briefly: primary screen, population patch clamp on CHO cells stably expressing hERG.
Sequence of human ether-à-go-go-related gene (hERG) potassium channel (Q12809 whole entry, looked up): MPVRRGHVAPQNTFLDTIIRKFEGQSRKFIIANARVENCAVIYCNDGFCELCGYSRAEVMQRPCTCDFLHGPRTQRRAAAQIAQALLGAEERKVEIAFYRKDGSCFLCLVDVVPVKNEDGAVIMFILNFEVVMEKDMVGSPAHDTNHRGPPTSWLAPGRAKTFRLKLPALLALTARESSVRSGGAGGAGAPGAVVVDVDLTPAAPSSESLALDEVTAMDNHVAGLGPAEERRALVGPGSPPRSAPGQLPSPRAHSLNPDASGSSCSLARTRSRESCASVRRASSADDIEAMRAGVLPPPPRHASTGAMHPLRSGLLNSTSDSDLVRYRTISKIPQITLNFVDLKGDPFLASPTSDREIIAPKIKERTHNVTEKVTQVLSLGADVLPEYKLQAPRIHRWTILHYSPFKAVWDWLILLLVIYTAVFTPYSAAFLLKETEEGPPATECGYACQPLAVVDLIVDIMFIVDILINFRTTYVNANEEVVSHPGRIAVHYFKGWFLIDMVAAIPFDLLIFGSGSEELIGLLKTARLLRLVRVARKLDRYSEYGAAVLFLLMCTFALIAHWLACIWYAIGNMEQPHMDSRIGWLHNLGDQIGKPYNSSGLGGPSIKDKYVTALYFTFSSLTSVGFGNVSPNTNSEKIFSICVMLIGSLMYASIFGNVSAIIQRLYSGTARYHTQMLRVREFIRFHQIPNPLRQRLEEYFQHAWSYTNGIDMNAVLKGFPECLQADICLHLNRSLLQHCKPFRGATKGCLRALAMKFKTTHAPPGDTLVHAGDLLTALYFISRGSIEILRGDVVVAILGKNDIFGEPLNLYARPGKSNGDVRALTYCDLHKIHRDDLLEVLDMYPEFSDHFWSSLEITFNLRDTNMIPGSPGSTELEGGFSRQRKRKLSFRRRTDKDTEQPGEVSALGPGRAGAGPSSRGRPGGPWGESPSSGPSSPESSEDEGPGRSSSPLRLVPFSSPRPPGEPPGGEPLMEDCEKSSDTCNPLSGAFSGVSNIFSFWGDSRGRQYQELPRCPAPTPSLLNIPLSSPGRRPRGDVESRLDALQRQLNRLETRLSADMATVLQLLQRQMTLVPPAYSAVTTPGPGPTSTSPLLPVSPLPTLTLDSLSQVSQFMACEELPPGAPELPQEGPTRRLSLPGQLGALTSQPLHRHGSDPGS
Take `Cc1cc(C)cc(C(=O)NCC(=O)OCN2C(=O)c3ccccc3C2=O)c1`: the “hERG current change (%, negative = inhibition) at 10uM” value is on record as 8.9%.

For `Cc1cc(C)cc(OCCn2nnc3ccccc32)c1`, the “hERG current change (%, negative = inhibition) at 10uM” value is 14.7%. Regarding `Cc1ccc(S(=O)(=O)NCC(=O)Nc2ccc3c(c2)OCO3)cc1`, the “hERG current change (%, negative = inhibition) at 10uM” value was determined as 8.87%.

With `COCC(C)NC(=O)CCS(=O)(=O)c1nc(-c2ccc(OC)cc2)cc(C(F)(F)F)n1` (stereo not shown), the “hERG current change (%, negative = inhibition) at 10uM” value is recorded as 9.82%.

Consider `CCc1ccc(OC(=O)c2cccnc2)cc1`, for which the “hERG current change (%, negative = inhibition) at 10uM” value turned out to be 21.6%.

Take `Fc1ccccc1OCCSc1nc2ccccc2o1`: the “hERG current change (%, negative = inhibition) at 10uM” value is on record as 13.3%.

`O=C(CSc1nnc(SCc2ccccc2)s1)N/N=C/c1ccc(C(=O)O)cc1`: the “hERG current change (%, negative = inhibition) at 10uM” value is reported as -28.2%. The value for `Cc1ccc([N+](=O)[O-])cc1S(=O)(=O)Nc1ccc(C(=O)N2CCN(C(=O)c3ccco3)CC2)cc1` was -10.4%. The value for `O=C(NCCc1ccccc1)/C(=C\c1cccc([N+](=O)[O-])c1)NC(=O)c1ccco1` was -78.6%; that for `COc1ccc(COc2cccnc2N)cc1` was -15.4%. The result for `O=S(=O)(NCCc1ccccc1F)c1cccc(S(=O)(=O)N2CCOCC2)c1` reads -18.4%; that for `O=C(Nc1ccc2ccccc2n1)c1ccccc1Cl`, 13%; that for `CN(C)CCC[C@]1(c2ccc(F)cc2)OCc2cc(C#N)ccc21`, -33.3%. Take `CCOc1ccccc1NC(=O)c1ccc2[nH]c(C)c(C)c2c1`: the “hERG current change (%, negative = inhibition) at 10uM” value is 17.9%. The result for `CC(=O)Nc1nc(CC(C)C)cc2c1c(=O)oc1ccccc12` reads 9.76%; that for `Cc1ccc(OCC(=O)NCCCNC(=O)c2ccccn2)cc1C`, 8.06%; that for `CC1(C)Oc2ccc3ccc(=O)oc3c2/C(=C/Nc2ccccc2)C1=O`, 5.39%.

As to `CSc1nc(-c2ccc(Cl)cc2Cl)[nH]c(=O)c1C#N`, the “hERG current change (%, negative = inhibition) at 10uM” value amounted to 27.5%. The value for `Cc1cc(C)n2c(Br)c(CSc3nc4ccccc4s3)nc2n1` was -76.7%; that for `Cc1cccc(NC(=O)CSc2nc(COc3ccccc3)nc3ccccc23)c1C` was 13.5%; that for `COc1cc(C(=O)OC2CCCCC2=O)cc(OC)c1C` (stereo not shown) was 4.2%. Turning to `O=C(CSc1nc2c(c(=O)n1-c1ccccc1)SCC2)NCC1CCCO1` (stereo not shown), the “hERG current change (%, negative = inhibition) at 10uM” value was 30.3%. The value for `O=C(CSCc1ccc(Cl)cc1)Nc1ccc(S(=O)(=O)N2CCOCC2)cc1` was -25.6%; that for `CSc1ccc(C(=O)C2CCCN(C(=O)c3cccc(N4CCOCC4)c3)C2)cc1` (stereo not shown) was -30.7%.

With `CC(Sc1cccc[n+]1[O-])C(=O)Nc1ccc([N+](=O)[O-])cc1Cl` (stereo not shown), the “hERG current change (%, negative = inhibition) at 10uM” value is 9.94%. The result for `CCCCC(CCCC)=N/N=C/c1c(O)n(CC)c2cc(C3=NNC(=O)CC3)ccc12` reads 5.04%. The result for `Cc1cc(C)c2cc(CN(CCO)C(=O)Nc3ccc(Cl)cc3)c(=O)[nH]c2c1` reads -1.76%.

Regarding `Cc1ccc2[nH]c3c(=O)n(CCN4CCOCC4)cnc3c2c1`, the “hERG current change (%, negative = inhibition) at 10uM” value is -17.5%. The value for `O=C1O/C(=C\c2ccccc2)c2ccccc21` was -57.8%; that for `COc1ccc(C2C(C(=O)N3CCCCC3)CCC(=O)N2c2cc(OC)c(OC)c(OC)c2)cc1` (stereo not shown) was 0.0986%; that for `COc1ccc(C2=NN(Cc3c(F)cccc3Cl)C(=O)CC2)cc1` was -6.32%. The result for `Cc1cccc(C)c1NC(=O)c1ccc(-n2cncn2)nc1` reads -7.98%. The result for `CCOc1ccc(NS(=O)(=O)c2ccc(C(=O)NCc3cccnc3)cc2)cc1` reads -17.6%; that for `O=c1cc(CSc2ccccc2)nc(-c2ccncc2)[nH]1`, 15.3%. Turning to `COc1ccc(S(=O)(=O)c2c(O)c3ccc(C(=O)Nc4cccc(F)c4)cc3[nH]c2=O)cc1`, the “hERG current change (%, negative = inhibition) at 10uM” value amounted to 9.3%. Regarding `CCOC(=O)c1ccc(NC(=O)CSc2nnc(CCc3ccc(C)o3)n2-c2ccccc2)cc1`, the “hERG current change (%, negative = inhibition) at 10uM” value was -15.4%. The result for `O=C1CN(C(=O)c2ccccc2F)c2ccccc2N1` reads 15%; that for `CCCc1nnc(NC(=O)CCC(=O)N2CCCCCC2)s1`, -0.608%; that for `CN1CCN(C(=O)c2cc(S(=O)(=O)Nc3ccccc3F)c(Cl)cc2Cl)CC1`, -0.7%.

Turning to `Cc1ccc(C(C)C)c(OCC(=O)N2CCN(c3ncccn3)CC2)c1`, the “hERG current change (%, negative = inhibition) at 10uM” value is -44%.

For the compound `Clc1ccc(-c2nnc3n2CCCCC3)cc1`, the “hERG current change (%, negative = inhibition) at 10uM” value is -7.83%. The value for `CCCCCCNC1=NCCS1` was -10.3%; that for `COc1ccc(C2C(C(=O)N3CCC(C(N)=O)CC3)CC(=O)N2c2ccc(OC)cc2)cc1` (stereo not shown) was -1.19%; that for `O=C(Cn1cnc2c(oc3ccccc32)c1=O)NCC1CCCO1` (stereo not shown) was -7.69%. The value for `COC(=O)C1=C(c2cccc(OC)c2OC)C[C@@H]2CC[C@H]1N2C(=O)NCc1ccc(C(F)(F)F)cc1` was -17.5%; that for `COc1ccc(CCNC(=O)CSc2nc(O)c(C(C)C)c(=O)[nH]2)cc1OC` was 17.2%.

For `COc1cc(OC)c(NC(=O)Cn2cnc3sc(C)c(S(=O)(=O)N4CCOCC4)c3c2=O)cc1Cl`, the “hERG current change (%, negative = inhibition) at 10uM” value is on record as -4.48%. The value for `COc1cc(-c2cc(C(=O)N(C)Cc3ccccc3)c3ccccc3n2)cc(OC)c1OC` was -0.748%; that for `COc1ccc2nc(NC(=O)c3ccc(NS(=O)(=O)c4cccs4)cc3)sc2c1` was 0.0903%; that for `COc1ccc(/C=C2\SC(=O)N(CCn3cnnn3)C2=O)cc1` was -10.4%.

Consider `CCC(CC)C(=O)Nc1nc(-c2ccc3c(c2)CCN3C(=O)C2CC2)c(C)s1`, for which the “hERG current change (%, negative = inhibition) at 10uM” value worked out at 12.2%. The value for `O=C(Nc1cccnc1)c1ccc(COc2ccccc2Cl)o1` was -3.16%; that for `O=C(Nc1ccccc1-c1ccccc1)c1ccc(=O)[nH]n1` was -1.11%. The value for `CCOC(=O)[C@@H]1[C@H]2COc3ccc(Br)cc3[C@H]2N2C(=O)N(c3ccc(Cl)cc3)C(=O)[C@@]12C` was 15.8%; that for `Cl.Cn1cccc1CNCCc1ccc(F)cc1` was -4.73%.

(Values after paper PMC4336329 (PLoS ONE, 2015).)
